Laboratory results reported in PMC5107933.
Results are given in words; binding and its absence hold for the method and conditions named. In cells and extracts the contact can be indirect. Some entries that bind do so weakly or less than the wild type. For some of these results: Where a sequence is shown, tags or fusion partners need not be part of it.

By UniProt entry, the sequences of proteins in these tests, tags left out. Residues count along the entry.
UniProt G1TJL6: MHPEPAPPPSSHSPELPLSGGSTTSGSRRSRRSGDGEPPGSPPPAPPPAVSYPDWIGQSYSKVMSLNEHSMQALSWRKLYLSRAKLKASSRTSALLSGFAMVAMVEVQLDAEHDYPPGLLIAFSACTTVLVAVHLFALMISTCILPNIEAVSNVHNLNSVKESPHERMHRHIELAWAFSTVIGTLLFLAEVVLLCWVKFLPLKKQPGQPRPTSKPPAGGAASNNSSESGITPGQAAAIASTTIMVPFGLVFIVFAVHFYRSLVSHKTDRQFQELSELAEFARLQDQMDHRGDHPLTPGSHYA
UniProt Q8BWG9: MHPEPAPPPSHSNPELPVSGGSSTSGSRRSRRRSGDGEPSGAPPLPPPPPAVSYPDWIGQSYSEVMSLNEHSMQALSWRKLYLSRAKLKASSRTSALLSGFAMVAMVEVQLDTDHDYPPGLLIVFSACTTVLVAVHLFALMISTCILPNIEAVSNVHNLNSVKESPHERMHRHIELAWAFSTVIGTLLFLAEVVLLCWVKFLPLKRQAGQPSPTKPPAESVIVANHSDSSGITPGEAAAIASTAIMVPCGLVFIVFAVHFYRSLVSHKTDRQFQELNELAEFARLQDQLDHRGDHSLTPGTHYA
UniProt P70302, residues 23-685: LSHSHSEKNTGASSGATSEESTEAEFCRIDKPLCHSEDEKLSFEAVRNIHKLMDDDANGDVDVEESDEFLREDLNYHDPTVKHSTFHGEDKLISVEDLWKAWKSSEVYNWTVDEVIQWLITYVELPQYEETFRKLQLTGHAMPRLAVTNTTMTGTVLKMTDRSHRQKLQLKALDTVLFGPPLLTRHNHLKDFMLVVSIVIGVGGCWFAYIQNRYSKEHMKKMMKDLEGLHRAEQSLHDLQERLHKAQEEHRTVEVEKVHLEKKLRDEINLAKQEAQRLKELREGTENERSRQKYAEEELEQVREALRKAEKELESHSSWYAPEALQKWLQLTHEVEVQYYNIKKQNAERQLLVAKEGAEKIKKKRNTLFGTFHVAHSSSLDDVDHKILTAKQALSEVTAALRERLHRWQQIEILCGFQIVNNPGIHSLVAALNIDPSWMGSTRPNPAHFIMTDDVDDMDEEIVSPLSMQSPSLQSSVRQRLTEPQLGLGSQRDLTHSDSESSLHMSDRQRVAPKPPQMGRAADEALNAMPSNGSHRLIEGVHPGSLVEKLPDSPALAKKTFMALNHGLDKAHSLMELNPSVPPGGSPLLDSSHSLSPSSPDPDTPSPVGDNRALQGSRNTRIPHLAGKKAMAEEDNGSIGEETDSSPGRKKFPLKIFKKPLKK

Experiments:
[1] = target: T1, Mitsugumin 53 (MG53), endogenous in rabbit skeletal muscle triad vesicles (rabbit (endogenous in skeletal muscle triad vesicles)) (UniProt Q1XH18); assay: co-IP; solubilized triad vesicle sample from rabbit skeletal muscle (30 μg of total proteins); immunoprecipitation with anti-Orai1 or anti-MG53 antibody; immunoblot with various antibodies; reaction without antibody as negative control
T1 sequence: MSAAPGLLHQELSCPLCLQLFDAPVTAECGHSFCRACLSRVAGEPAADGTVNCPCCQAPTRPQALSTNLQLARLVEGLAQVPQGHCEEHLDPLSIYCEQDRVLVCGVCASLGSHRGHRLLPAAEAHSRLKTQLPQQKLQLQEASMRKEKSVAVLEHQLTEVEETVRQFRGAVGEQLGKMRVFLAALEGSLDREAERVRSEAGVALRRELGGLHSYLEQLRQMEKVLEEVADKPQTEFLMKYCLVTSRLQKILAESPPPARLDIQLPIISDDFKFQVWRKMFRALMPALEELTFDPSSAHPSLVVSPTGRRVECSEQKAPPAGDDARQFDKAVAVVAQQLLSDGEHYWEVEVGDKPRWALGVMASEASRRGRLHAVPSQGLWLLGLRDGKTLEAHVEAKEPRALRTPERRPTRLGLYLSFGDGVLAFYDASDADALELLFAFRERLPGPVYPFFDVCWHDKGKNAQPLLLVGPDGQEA

[2] = target: T2, GST-full-length MG53 (mouse) (UniProt Q1XH17); assay: pull-down; GST-fused MG53 proteins immobilized on GST beads, incubated with the triad vesicle sample from rabbit skeletal muscle; immunoblot with anti-Orai1 or anti-GST; only the target purified
T2 sequence: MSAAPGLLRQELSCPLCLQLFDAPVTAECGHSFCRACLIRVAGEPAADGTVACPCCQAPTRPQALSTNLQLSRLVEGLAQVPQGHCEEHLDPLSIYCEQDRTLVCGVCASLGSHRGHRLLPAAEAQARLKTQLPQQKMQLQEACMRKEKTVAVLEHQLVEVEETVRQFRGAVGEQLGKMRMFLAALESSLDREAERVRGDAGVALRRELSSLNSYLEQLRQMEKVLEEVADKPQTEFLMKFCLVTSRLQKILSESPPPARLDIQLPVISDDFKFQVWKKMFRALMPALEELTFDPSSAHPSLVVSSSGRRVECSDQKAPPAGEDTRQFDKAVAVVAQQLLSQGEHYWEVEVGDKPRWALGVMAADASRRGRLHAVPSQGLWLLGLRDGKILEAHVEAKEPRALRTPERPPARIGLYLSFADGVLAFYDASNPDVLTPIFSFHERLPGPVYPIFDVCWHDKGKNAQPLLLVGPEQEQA

HA-MG53 (mitsugumin 53) = target: T3, HA-MG53 (mitsugumin 53) (UniProt Q1XH17); assay: co-IP; HEK293 cells co-transfected with HA-MG53 and a myc-tagged protein; lysed with RIPA buffer (150 mM NaCl, 5 mM EDTA, 1% Nonidet P-40, 20 mM Tris-HCl, pH 7.5); 20 μg of total protein incubated with anti-HA antibody overnight; immunoblot with anti-HA or anti-myc
T3 sequence: T2 sequence

| binding [1] | binding [2] | binding (HA-MG53 (mitsugumin 53)) | Substance |
| --- | --- | --- | --- |
| binds | binds | – | Orai1, endogenous in rabbit skeletal muscle triad vesicles (from UniProt G1TJL6 1-302) |
| – | – | binds | Orai1-myc (from UniProt Q8BWG9 1-304) |
| – | – | no binding | STIM1-myc (from UniProt P70302 23-685) |
